# In all, about 310,000 compounds went through this assay and about 14,000 (4.5%) showed an effect of 50% or more. The effect is printed as a negative number. Some of the results follow.
# Target: human ether-à-go-go-related gene (hERG) potassium channel (human, UniProt Q12809)
# Assay: primary screen, population patch clamp on CHO cells stably expressing hERG
# 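Note: peak tail current of the secondary pulse compared with the same well before compound.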
# Sequence of human ether-à-go-go-related gene (hERG) potassium channel (Q12809 whole entry, looked up): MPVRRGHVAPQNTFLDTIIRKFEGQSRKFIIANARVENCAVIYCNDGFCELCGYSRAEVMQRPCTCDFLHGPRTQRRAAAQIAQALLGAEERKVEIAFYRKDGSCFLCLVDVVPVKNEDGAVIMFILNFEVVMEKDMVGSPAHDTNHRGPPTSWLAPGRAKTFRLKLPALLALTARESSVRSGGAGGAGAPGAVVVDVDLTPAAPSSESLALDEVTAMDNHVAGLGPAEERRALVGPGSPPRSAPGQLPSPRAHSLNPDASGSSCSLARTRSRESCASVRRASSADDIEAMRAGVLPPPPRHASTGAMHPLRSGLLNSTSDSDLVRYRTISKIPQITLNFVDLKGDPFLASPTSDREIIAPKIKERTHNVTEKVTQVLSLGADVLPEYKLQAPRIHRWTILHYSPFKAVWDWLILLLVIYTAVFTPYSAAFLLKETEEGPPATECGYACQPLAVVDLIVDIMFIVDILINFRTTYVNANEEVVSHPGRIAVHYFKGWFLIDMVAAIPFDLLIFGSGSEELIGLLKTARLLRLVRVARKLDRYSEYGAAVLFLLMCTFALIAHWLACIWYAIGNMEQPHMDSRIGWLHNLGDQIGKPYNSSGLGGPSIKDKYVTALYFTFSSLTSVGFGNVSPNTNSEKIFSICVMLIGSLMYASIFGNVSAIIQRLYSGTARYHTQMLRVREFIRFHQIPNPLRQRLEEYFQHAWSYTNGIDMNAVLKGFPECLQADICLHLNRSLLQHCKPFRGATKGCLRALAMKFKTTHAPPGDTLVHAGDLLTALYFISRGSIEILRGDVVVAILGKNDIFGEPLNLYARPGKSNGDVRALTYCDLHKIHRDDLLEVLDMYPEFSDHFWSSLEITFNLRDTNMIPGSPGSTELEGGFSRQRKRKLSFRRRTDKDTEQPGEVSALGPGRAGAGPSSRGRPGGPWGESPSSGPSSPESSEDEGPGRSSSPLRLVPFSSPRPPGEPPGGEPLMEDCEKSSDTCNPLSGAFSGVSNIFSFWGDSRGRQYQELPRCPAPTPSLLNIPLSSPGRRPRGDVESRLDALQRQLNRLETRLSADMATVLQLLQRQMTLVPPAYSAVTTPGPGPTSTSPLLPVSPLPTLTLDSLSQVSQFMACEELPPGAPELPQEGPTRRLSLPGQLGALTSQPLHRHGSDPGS
row,SMILES,"hERG current change (%, negative = inhibition) at 10uM [%]"
1,O=C(NC(Cc1ccccc1)C(=O)O)C1CCCCC1 (stereo not shown),2.22
2,O=C(CSc1nc(-c2ccccc2Cl)ns1)NCc1ccc2c(c1)OCO2,7.69
3,Cc1ccc(-c2nc(C)c(C(=O)O)s2)cc1,22.5
4,C=CCN1C(=O)C2(C(C(=O)OCC)=C(N)Oc3c2c(=O)oc2ccccc32)c2ccccc21 (stereo not shown),21.5
5,Cn1c(CCN2CCCCC2)nc2cc(NC(=O)Nc3ccccc3)ccc21,-28
6,CCCCn1c(N)c(N(CCC(C)C)C(=O)CSc2nnc(C)s2)c(=O)[nH]c1=O,0.187
7,Cc1ccc(Cl)cc1NC(=O)C1CCN(S(C)(=O)=O)CC1,18.7
8,O=C(CN1CCN(S(=O)(=O)c2ccccc2)CC1)Nc1ccccc1C(=O)NC1CC1,-27.1
9,COCCn1c(=O)[nH]c(=O)c2cc(C(=O)c3cc(OC)ccc3O)cnc21,5.69
10,Cc1ccc(C)c(C(=O)c2ccccc2NC(=O)c2ccccn2)c1,-6.35
11,O=C(Nc1ccccc1C(F)(F)F)N1CCCCCC1,8.71
12,Cc1c(NC(=O)CN2C(=O)NC(C)(c3ccccc3Cl)C2=O)c(=O)n(-c2ccccc2)n1C (stereo not shown),8.24
13,CCOC(=O)c1c(C)nc2c(c1-c1ccccc1)C(=O)CCC2,-10.6
14,CCc1noc(C)c1C(=O)Nc1cc(Cl)ccc1N1CCCC1,4.72
15,CC(=O)N1N=C(C)CC1c1ccc(O)cc1 (stereo not shown),15.2
16,COc1cccc(NC(=O)CN2CCN(c3ccccc3F)CC2)c1,-9.18
17,COC(=O)Cc1ccc(NC(=S)N2CCCC(CO)C2)cc1 (stereo not shown),-63.2
18,COc1ccc(/C=C(\C)C(=O)c2c(C)cc(C)[nH]c2=O)cc1,12.9
19,Cc1cc(C)n2nc(S(=O)(=O)Nc3c(Cl)cccc3Cl)nc2n1,7.51
20,O=C(COc1ccc2ccc(=O)oc2c1)N1CC[C@@]2(O)CCCC[C@H]2C1,8.39
21,COc1cc(NC(=O)c2ccc(C)cc2)ccc1NC(=O)c1cc2ccccc2o1,15.2
22,O=S(=O)(c1ccc(F)cc1)N1CCN(c2ncnc3c2cnn3-c2ccccc2)CC1,10.2
23,COc1cccc(N2CCN(C(=O)CCC(=O)N3CCOc4ccc(C)cc43)CC2)c1,-30.3
24,O=C(Cn1cnnn1)NC1CCCN(Cc2ccccc2F)C1 (stereo not shown),11.5
25,CC(=O)Nc1ccc(C(=O)Nc2ccc(S(=O)(=O)Nc3nccc(C)n3)cc2)cc1,15.9
26,NC(=O)N/N=C/c1ccccc1OC(=O)c1ccccc1Br,14.2
27,CC(=O)Nc1cc(C(=O)N2CCC3(CC2)OCCO3)ccc1S(=O)(=O)c1ccc(Cl)cc1,-12.1
28,COc1ccc(OC)c(S(=O)(=O)N2CCC(C(=O)NC(C)c3ccccc3)CC2)c1 (stereo not shown),-17.6

row,SMILES,"hERG current change (%, negative = inhibition) at 10uM [%]"
1,COc1ccc(CCNC(=O)CC(C)S(=O)(=O)c2ccc3c(c2)NC(=O)CO3)cc1OC (stereo not shown),5.88
2,O=C(OCCOCCN=C1NS(=O)(=O)c2ccccc21)c1ccncc1,12.2
3,CCO/C=C1\SC(=S)N(c2ccc(Cl)cc2)C1=O,18.1
4,Cc1nc2sc(C(c3ccco3)N3CCOCC3)c(O)n2n1 (stereo not shown),5.07
5,O=C(Nc1ccc2snnc2c1)N1CCCCC1,11.9
6,N#Cc1c(N)n(CCc2ccc(F)cc2)c2nc3ccccc3nc12,27.1
7,CC(=O)C1=C(O)C(=O)N(Cc2ccco2)C1c1cccc(F)c1 (stereo not shown),19.1
8,Cc1cccc2cc(C#N)c(N3CCC(O)CC3)nc12,0.861
9,O=C(CN1CCN(S(=O)(=O)N2CCCCCC2)CC1)Nc1cc(Cl)ccc1Cl,7.48
10,CCOc1ccc(C2C=C(c3ccc(F)cc3)Nc3ncnn32)cc1 (stereo not shown),-27.7
11,O=C(C1CC1)N(Cc1ccco1)c1nc(-c2ccccc2)cs1,-8.62
12,O=C(Nc1cccc(Cl)c1)N1N=CCC1c1ccccc1 (stereo not shown),-6.34
13,CN1CCN(c2ccc(Cl)cc2NC(=O)c2ccc(S(=O)(=O)N(C)C)cc2)CC1,1.58
14,O=C(CCc1c[nH]c2ccccc12)NCc1ccco1,32.4
15,CCOC(=O)c1c(NC(=O)Cn2cnc3scc(-c4ccc(C)cc4)c3c2=O)sc(C)c1C,-14.5
16,CCCN(C(=O)c1ccc(S(=O)(=O)N2CCCC2)cc1)C1CCS(=O)(=O)C1 (stereo not shown),7.16
17,S=C(Nc1cccc(Br)c1)N1CCn2cccc2C1c1cccnc1 (stereo not shown),-4.95
18,CCc1nnc(NC(=O)CN2C(=O)N(C)C3(CCCCC3)C2=O)s1,-0.055
19,COc1ccc(-c2cc(-c3ccc(Br)cc3)nc3ncnn23)cc1OC,-34.4
20,Cc1ccc(-c2nc(N3CCOCC3)sc2C(=O)N2CCCCC2)cc1,0.618
21,CCc1ccc(N2C(=O)NC(=O)/C(=C/c3cccn3CCOc3ccc(C)cc3)C2=O)cc1,5.37
22,CCn1c(SCC(=O)N2CCN(c3ccccc3)CC2)nnc1-c1cc2cc(Cl)ccc2o1,-9.93
23,Cc1cnc(C(=O)OCC(=O)Nc2ccc(OCc3ccccc3)cc2)cn1,9.67
24,Cc1cc(OCCn2cc(/C(N)=N/O)c3ccccc32)ccc1Cl,0.721
25,CCOc1nc(Nc2ccc([N+](=O)[O-])cc2)nc(NC(C)(C)C)n1,12.2
26,COc1cccc2c1Oc1ncccc1N(C(=O)CCC(=O)NCc1ccccc1F)C2,-22.8
27,CC(C)Cc1cc(C(=O)Nc2cc(C(F)(F)F)ccc2Cl)no1,13.7
